In paper PMC10726135:
Some of the results follow. At the low end of the ranking the order means little. The protein was read in a cell extract, so binding may be indirect.

Molecular target: T1, HNF4alpha8 (COS-7 nuclear extract) (UniProt P41235-5)
T1 sequence: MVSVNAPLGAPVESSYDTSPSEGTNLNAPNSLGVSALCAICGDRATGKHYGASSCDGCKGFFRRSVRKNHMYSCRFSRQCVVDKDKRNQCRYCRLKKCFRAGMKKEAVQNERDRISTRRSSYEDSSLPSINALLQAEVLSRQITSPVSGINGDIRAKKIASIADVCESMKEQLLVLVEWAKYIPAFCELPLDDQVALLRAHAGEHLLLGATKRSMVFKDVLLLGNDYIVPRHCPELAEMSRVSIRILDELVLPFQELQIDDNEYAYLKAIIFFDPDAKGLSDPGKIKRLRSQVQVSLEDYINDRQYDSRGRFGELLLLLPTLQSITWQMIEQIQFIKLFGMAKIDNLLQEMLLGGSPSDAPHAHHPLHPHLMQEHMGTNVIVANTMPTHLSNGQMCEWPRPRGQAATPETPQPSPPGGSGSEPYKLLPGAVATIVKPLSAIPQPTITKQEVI
Assay: protein-binding microarray
Details: COS-7 nuclear extract on double-stranded Agilent 4x180k PBM; binding buffer, salt, pH and temperature not given; high values mean tight binding; double strand, one strand shown; sequences stand for … in …GCCTAGGGAGATTAGAGTATCGGTCGA

Row | Sequence | binding signal (log2 normalized intensity)
1 | GAGGTGAGAAGCCTGAAATGAGTTTCATTA | -1.38
2 | GAGGGCTCAAGGTCTGCATGCCATTTTGCA | -1.01
3 | GTTATCTATGGAACATGGACTTTGAACCTC | 10.9
4 | GGCCAAGGCAGATATACCAGATAAGGCAGT | -1.41
5 | AATGGATCTAAGGACAAAGTCCAAGGAAGG | 5.5
6 | AAACCCTGAGGGTCAACACAATCTGATAGT | 0.801
7 | TAATGACTGATAATTGAAAACAGAGATTGG | 0.102
8 | CGGCGCCGGACGCGTCCTCGGCTCTGCGCA | -1.34
9 | ACGTGGAAGAAACTCATCTCCAGATAAGAC | -1.37
10 | TTTAACCTCCCTGCAGGTCTCTAAATGGTA | 0.259
11 | GATGCCTAGGATTCTTGCATGATCGATCAC | 1.29
12 | GGCCTTTGGAATCAAACAGATGTAGACATT | 2.31
13 | TTGTATGCTTAACTATGTTTATCAGAGCAA | -1.25
14 | CTTCTCCTCCCCTCCCCCCAGTTCCCTGGG | 4.74
15 | CTGAGCACTGTCTCAGGGTCCACATTCCAG | 3.5
16 | CGCTCCTCTCTGTATTCCCTCTCTTCAGAA | -1.09
17 | TTTGATCTGGGTGGGGGTGGAGGCAGCAGC | -1.34
18 | GAGGACTGAGCCCGCTCCACTCCGGGCGAT | -1.33
19 | GAGGTCATGTACATGAAAGCAAGTTAAAAC | 0.558
20 | CCTGGAGCAAACTTACTCTGGGGGAACCTC | -1
21 | ATTAGGACCTGTTTGTCTTGCTGGGGAGAT | 0.928
22 | TCAACACTGAAATAGCATACCTTTATTAAG | -1.33
23 | GTTGAGTGAATGGATGGATCCGCAGCCAGG | -1.22
24 | TCATATTTGTTATATTTGTTATACCAGACA | 1.85
25 | AAACAATGACCTCTGCACCCTTCCCTGAGT | 4.47

Row | Sequence | binding signal (log2 normalized intensity)
26 | ACATCTCCGAGTCCAGGGATAACAGTCCTG | -0.837
27 | TTCTTTTTGAAGCAAAGCCTTTGAGCAGAT | 0.807
28 | CCTCTTTTAAGAAGCCAGTGTCTATTTACA | 1.03
29 | GGATTTTTTGGGTAAAGTCCAGGCAGGACA | 2.29
30 | ACACCGTATCATCAAACCTGTTATTTGCGC | 0.609
31 | TTTTTTTTTTTTTTTTTTTTGAGATGGAAT | 2.54
32 | CAGAGTAGCCTATCAGAAGAATCTGTATCA | -1.33
33 | CCTTGGCCTCCCGGAGAGGCCCCGCCCCGT | 4.86
34 | TCTGGGAAATGTAGTTCCGGAGAACACGGA | -0.979
35 | TTCAAAGGACAGACTTTGGACCTGGCCCTC | 6.56
36 | CATGTTGAGTGGAATATGAGGTCAGGGTTC | 3.26
37 | TCCACATCAGAGAGTTCAAACTCTGAAGTT | 1.61
38 | CTTTCCTAATGGTACCATCTGCCACTCATA | 0.0159
39 | GGTACAGAAACAGCTGGATTGTTACATCAT | -0.216
40 | GGTCCATAAAACCAGTCAGGCAAACAACAG | -1.42
41 | TTTTAATGTGTGCTTTCAGGTGTGAACCCA | 3.65
42 | AGGGACTAAGCTTGTAGACCAAGGAGGCCT | -1.23
43 | AGCCAAGCTCCCCTTTTAAACTGAAGCATG | -1.36
44 | TTTAACTTGGCAAGGGGAGGCACTCATGGT | -1.21
45 | GGGTCAAAGTCTGGATCCGTTAACAGCGGC | 3.04
46 | ATGTTAGTCTTGAGTCCCAAAGTCCAAAGG | 6.25
47 | GAGGATGGGAAGTCCAAAGTCTGCAGGGTA | 3.76
48 | GTCTCTCTCATTCACACCCTCAGCTGATGG | -1.08
49 | CACAGCAGAGGAGCCCTGGGCTCAGAAATC | -1.39
50 | CAAACGCCCCTTGGATGAATGGCTGATTGG | -0.218

Row | Sequence | binding signal (log2 normalized intensity)
51 | AAGCCTGATGAAGCCTATAGTGCTCCCTCC | -0.779
52 | ACTTCGACCTCACATTGTAGCTAAAATGTT | 0.171
53 | CAGGTTCTGCAACACTTTCTAAGGACACAA | -1.36
54 | GCAGAGAAGACTTGGGGGAGGAGGGCAACC | -1.3
55 | TCTCGGTCAAACCTTTGACCCTTTATAATC | 6.91
56 | ACAGGTGTGGGTTCAAATCCATTCAGCAGC | -0.121
57 | GGCTTCTTATCAGCAGCTGGGGTGACTGAT | 0.592
58 | TGCTCCAGGCCGGCTTGCGTCCCCAGGTGA | -1.28
59 | AAGTCAGAGGCCCAGCAAGGAGAAAGCGAG | -1.4
60 | ACTTAGGACACAAAGAGTTCAGAGAGGGAT | -1.02
61 | TGAAGACAGGCCAGGGTGATCAAACATCAC | -1.35
62 | CTGGCTGGGCAGGCTCCCTCCCTGGGAGGC | -1.21
63 | CGCCGGGCGCCGCTCTGAGTGACCTTTCAC | 5.71
64 | TCCAAAGGTAATGGTCTCTCCCAGCGGGTC | 0.65
65 | TCATTCCTCAAATGCTCCTTTGAACAACTC | 1.05
66 | CTTCAAACCTGGGAAAACTTACGCACATTA | -1.28
67 | GTTAGTGCCCTCTGGTGGCACACAGAGGAC | 0.687
68 | TTGAATTCCTTCTTCTTCTGGGGACTTCGG | 2.16
69 | TGGACTTTTATGTTAAGATCAAACAGGGAC | 1.2
70 | TGAAACATATCCAGAATGTGTTTGCTTTTT | 1
71 | GGAGCATCTATTTTCTATTTCCACTGAGGT | 0.149
72 | TAAAGTGACTAGAGAGCAGGAGCCACCTGT | -1.31
73 | CCTCCTAAGTAGCCAAGATTACAGCCACAT | -1.21
74 | ATTCCAAAAAGCTTTTGTCATGACCTTCGC | 5.07
75 | CCAGCCAGTAGGAGTTGGAACGGGGGCAAG | 0.853

Row | Sequence | binding signal (log2 normalized intensity)
76 | TCTGATGGCGTATGCAGCAGGGCAGCAGCC | -0.926
77 | GTAGAGAGCAGTCCTGCACATGAATGATCA | -0.324
78 | TTTTGTAGATGCCTGCTTTCCACTCCCATT | 1.49
79 | GGAGGTCTGGAATGTGGAGAATGGCAAGAG | -1.27
80 | AACTTCTTATCACTTGGTGGACATGGTTCA | 2.38
81 | CGTCAAGGTGAAAAGCCTTTTGAAGAAACC | -1.18
82 | AGATGGCATCACTCTTGCCACAGAACAGGC | -1.29
83 | CCACAGGTATTCTTTCATCCCTCTCCCGCC | 2.4
84 | TTGTGCAAGAATGCGTCATCCGCATCTGAA | -1.37
85 | CGCTGACTCCGGGGAGCAGGCAGAGGAACA | -1.26
86 | GGACAGCAGAGTGGAGGCCAGCGCCAGGCT | -1.39
87 | AGCCTTGAATTGGCATGAGATCCACCTAAG | -1.24
88 | GGCATATCTTTTTATCTCTGAATCCTCAAC | 1.04
89 | CGCTCCCCTCCCCCACCCGCGGTCCGTCCC | 5.77
90 | AGGGAGGAGGGATCAAGCAGGTGACCTTCG | 4.02
91 | TGCAGCCCACAGCCCGCTGTGCCTGTCACC | -1.14
92 | CTAGCCCCGCCCAGATGTCTGGCTAAGACC | 3.43
93 | GAACTGGTCCGGCCCGACTCACGACCCCGC | 2.48
94 | GCTGATAATGGAATTGACATTCAATTGCAA | -1.31
95 | ATTCCAGGAAGGTCTGATGGGCCAGGCAGG | -1.43
96 | GTGGTGTCTTACCGGGATTTTGTTGGGGAA | 1.26
97 | TTGAAATGTTATCATTAGGGAAAATAGTGA | 0.442
98 | GCCGGCTCTGAAGAGAACGGCTGATTCTGA | -1.23
99 | CCTGGGTCAAATTGGTGCTTTCATCCCCTG | 1.76
100 | AAAGTGACCCTCTGCCCCCTACACAGAGGA | 4.75

Row | Sequence | binding signal (log2 normalized intensity)
101 | TCCTCCTTTTTTTTTTCAAGTGTTAGCTGT | 1.78
102 | GTGACGGAGGTGACCTTTGGTTGTCCTTAC | 4.94
103 | AACACCAGCAACCGCCTACCTTTGGACTTC | 6.25
104 | ACGACTTGCTTATCTTACGCAACTGAAATT | -1.3
105 | GCACGAAAAACAGGTAGTTTGCAGTCTGAG | -1.34
106 | GCTCAGTGCCTTCTCTAATGACTGATAATT | 0.878
107 | GGCATCATAAACTCCAACTCAGCCCCCAGC | 4.54
108 | ACTGAGAAACCAAGATCCTAGTCTTTAGAG | -1.35
109 | TATTGGGAGGCCCATTGTGCTGGGGGCAAG | 1.93
110 | AGTAGGCACTATTATCCCCCTATCCCAAGA | 4.72
111 | TGTTTAGCCCAATAAAATCTGGCAGCTTAA | -1.28
112 | GCAAAGATCAGTGAGAAGAGAAACACATGC | -1.38
113 | TCCTCTATCTTCAAAGCCAGCAACGGTGAG | 0.0395
114 | CAGTTGACCTTTGAACACCACAAGTTTGAA | 6.74
115 | ATCTTCCAAATTCTCCCAGGCCATACAGAT | 0.992
116 | TTATTTAAGATTGAGAACTTTGACACCGAG | 3.18
117 | GGCCAGGAACGTCACACTGAAAGCTATCCC | -1.38
118 | GAAACTTATTGTGAACTGGAGCAAAGGTCA | 5.97
119 | GGGTGTCAAAGCCCAACCAGGATAGGGAGG | -1.28
120 | TGTACAGGACCATGTTCTCCTAAAGTGACT | -1.19
121 | CTGCTTATCTAGGATGAGAATCCACCTGCC | -1.26
122 | AAAATTCAACAAGACCCTGCCCTTTCCCCC | 4.65
123 | TAATTTAGATATCGCTCCAAGAGCCAACAG | -1.35
124 | CTTTTATAAGGGGCAGCAAACCTACCTGAA | -1.32
125 | GTAAACTCCCTTTGATGCGGTCAGAGTTCA | 3.65

Row | Sequence | binding signal (log2 normalized intensity)
126 | GTTATGGCACCAAGAAACCTTTCCCTCTCT | -1.02
127 | TGAAACTATAAACTTGGTTACAGGACCAGG | -1.26
128 | GATCAAAGGTCGGTTTTAGGACAACATGAG | 5.07
129 | CCTCAAAGTGGACTTTAGAACCCAAATAGA | 6.63
130 | ATACAACCTCTGTAATAACTGCAGTGCCAC | -0.214
131 | GACCTTTGCTCATGACTATTCTCTAAACTC | 4.71
132 | AGTTTGGAGATGCCGTTAAGCAGATAAGGT | 0.402
133 | AACAAAGGTCGGTGGTATGTGTGTGCTTTA | 2.2
134 | AAGGACCTCCTGAGATAGGTATGATAACCC | 0.362
135 | AGAAACTCAATCGCCTTTTATTTTTCCCCT | 1.77
136 | GAATTTGGTTACTCGCCTTAGAAATATTCA | -1.41
137 | AATTTATAGGCACTAGGTGTTCCTCAGCCT | -1.33
138 | CATGGAGGATTTAGATAACATCTTTTCTCA | -1.26
139 | ACAACGAGGTGCCAGAAACCTGACTTCCAA | -1.26
140 | AGACTCAACACCCAGGCTTATCTCACTCCA | -1.47
141 | TCACTATTGACATTTGGGGTCAGATAATTC | 3.25
142 | AAAGACCCTAAACCTGTTGGGTCAGGCTGC | -1.01
143 | TCACTTTTTATCTGCCTTTTATCTATTTGT | 1.4
144 | GCCGATCACTGGCCCAGCTGGTTTGAAGAA | -1.16
145 | CCCCTTGAGACTTTAATCTCTCCTCTGACA | 0.306
